Measurements taken from PMC12041881, “Tailored phenyl ureas eradicate drug-resistant Mycobacterium tuberculosis by targeting mycolic acid cell wall assembly” (Chemical Science, 2025).

Test system: Mtb H37Ra proteome
Type: cell-based

Row | Compound | EphF abundance in full proteome | IniA and IniC abundance in full proteome | MmpL3 abundance in full proteome
1 | O=C(Nc1ccc(Cl)c(C(F)(F)F)c1)NC1CCCCC1 [Compound 227] | slightly upregulated | concentration-dependently upregulated | slightly upregulated
2 | O=C(Nc1ccc(Cl)c(C(F)(F)F)c1)NC1COC2(CCC2)OC1 [Compound 21] | slightly upregulated | concentration-dependently upregulated | slightly upregulated
3 | CC(C)=CCC/C(C)=C/CNCCNC1C2CC3CC(C2)CC1C3 (stereo not drawn) [SQ109, reference compound] | not | not induced | does not
